Laboratory results published in PubChem BioAssay AID2451 (National Center for Advancing Translational Sciences (NCATS), 2010).
Where “and” joins values, the source holds several entries; their conditions need not be identical. Equal values may be shown once. Hit rate of the full screen: of about 290,000 compounds, about 2,100 (0.72%) were called active. Inconclusive results, whose numbers are uncertain, are shown with a selection of clear calls. Calls follow the shape of the dose curve; as a rule, active = well fitted inhibition curve with a large enough effect; inconclusive = small, poorly fitted or top-dose-only effect, or effect the other way; inactive = flat fitted curve, though single readings scatter. A potency beside an inconclusive call is a rough fit, not a confirmed value.

These molecules were tested against Fructose-bisphosphate aldolase (Giardia intestinalis (strain ATCC 50803 / WB clone C6)) (UniProt A8B2U2) (assay: qHTS Assay for Inhibitors of Fructose-1,6-bisphosphate Aldolase from Giardia Lamblia). Conditions: purified Giardia FBPA; activity, negative = inhibition: at 59.6 µM (top of the series) unless noted.
Sequence of UniProt A8B2U2 (A8B2U2 whole entry, looked up): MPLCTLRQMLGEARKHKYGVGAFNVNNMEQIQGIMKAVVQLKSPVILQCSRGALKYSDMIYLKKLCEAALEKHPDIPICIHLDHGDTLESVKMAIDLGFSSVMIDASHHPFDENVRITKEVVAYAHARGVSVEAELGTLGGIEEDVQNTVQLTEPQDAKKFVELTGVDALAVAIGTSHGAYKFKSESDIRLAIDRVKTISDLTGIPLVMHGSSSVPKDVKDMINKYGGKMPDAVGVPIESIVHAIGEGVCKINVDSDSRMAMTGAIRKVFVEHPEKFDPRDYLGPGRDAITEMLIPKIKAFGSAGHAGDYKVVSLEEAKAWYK
Procedure, shortened: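 Giardia FBPA (40 nM reagent) was preincubated 10 min at RT with compound (up to 57.5 uM final), then substrate plus GAPDH/TPI/NAD/arsenate coupling system with diaphorase/resazurin was added; resorufin fluorescence (525/598 nm) was read after 20 min.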
% is scaled to controls: 0 for no effect and ±100 for the full control effect; potency is read from the fitted curve at half-maximal effect; tags tell the direction and shape of the fitted curve.
Also: nearly all actives have a fitted effect of over 55% in size.

For `Cc1ccc2[nH]c(C)c(CC(=O)O)c2c1`, which Potency is on record?
Its Potency is inconclusive: 44.6 µM [inhibitor, single point].

Which Potency does the source give for `CCn1c(CSc2ncn[nH]2)nc2cc(C(=O)O)ccc21` here?
Its Potency is inconclusive: 44.6 µM [inhibitor, single point].

Which Potency does the source give for `COc1cc(C=C(C#N)C#N)cc(O)c1O` here?
Its Potency is inconclusive: 44.6 µM [inhibitor, single point].

Which Potency does the source give for `OC(CC#CCN1CCCCCC1)(c1ccccc1)C1CCCC1` (configuration not stated) here?
The Potency was inconclusive: 28.2 µM [inhibitor, partial curve].

With `O=C(Nc1ccc(F)cc1F)Nc1sccc1-c1nc2ccccc2s1` as the molecule, how does the Potency read?
Its Potency is inconclusive: 15.8 µM [inhibitor, single point].

Which “activity, negative = inhibition” value does the source give for `COc1ccc(Cl)cc1NC(=O)CN(C)CC(=O)Nc1cc(OC)c(OC)c(OC)c1` here?
The value was inactive: 3.45%.

With `COc1ccc(OC)c(NC(=O)CCN2CCN(C)CC2)c1` as the molecule, how does the Potency read?
The Potency was inconclusive: 17.8 µM [inhibitor, partial curve].

How did the “activity, negative = inhibition” value turn out when `O=C(NCCO)C(=O)Nc1cc2c3c(c1)CCN3C(=O)CC2` was run?
The value was inactive: -2.42%.

For `Cc1cc2cc(NC(=O)c3ccco3)ccc2[nH]1`, which Potency is on record?
The Potency was inconclusive: 17.8 µM [inhibitor, partial curve].

How did the “activity, negative = inhibition” value turn out when `CC(C)[C@@]1(NC(=O)[C@@H]2C[C@@H]3c4cccc5[nH]cc(c45)C[C@H]3N(C)C2)O[C@@]2(O)C3CCCN3C(=O)[C@H](Cc3ccccc3)N2C1=O` (some centres not stated) was run?
Its value is inactive: -7.61%.

For `CCOC(=O)c1sc(Nc2cccc(Cl)c2)nc1C`, which “activity, negative = inhibition” value is on record?
Its value is inactive: -13.6%.

With `CCc1cc(=O)oc2c3c(cc(OCC(=O)NC4CC4)c12)OC(C)(C)CC3` as the molecule, how does the “activity, negative = inhibition” value read?
Its value is inactive: 16.2%.

With `CCOC(=O)C1Nc2ccc(C(=O)O)cc2C2C=CCC12` (configuration not stated) as the molecule, how does the Potency read?
The Potency was inconclusive: 25.1 µM [inhibitor, partial curve].

`O=C(NCCc1ccccc1)c1ccc(=O)oc1` was tested. Which “activity, negative = inhibition” value did it give?
Its value is inactive: 4.08%.

How did the “activity, negative = inhibition” value turn out when `Cc1cc(N2CCN(C)CC2)nc2ccc(NC(=S)NCCCN3CCN(C)CC3)cc12` was run?
The value was inactive: 0.805%.

With `Cl.Cl.Cl.Cl.Cl.Cl.N.N.N.N.NNNNN.NNNNN.O.O.[Ru].[Ru].[Ru]` as the molecule, how does the Potency read?
The Potency was inconclusive: 22.3 µM [inhibitor, partial curve].

How did the Potency turn out when `Cc1cc(-c2csc(N)n2)c(C)n1C` was run?
The Potency was inconclusive: 7.92 µM [inhibitor, partial curve].

`O=C(Cn1cnc2ccccc2c1=O)NCc1ccc2c(c1)OCO2` was tested. Which “activity, negative = inhibition” value did it give?
The value was inactive: 2.3%.

With `CCc1n[nH]c(=S)n1/N=C/c1ccccn1` as the molecule, how does the Potency read?
Its Potency is inconclusive: 7.08 µM [inhibitor, partial curve].

How did the Potency turn out when `O=C(C1=C(O)C(=O)N(CCOCCO)C1c1ccccn1)c1cccs1` (configuration not stated) was run?
Its Potency is inconclusive: 19.9 µM [inhibitor, single point].

How did the Potency turn out when `CCCCC(=O)N/N=C/c1c(O)n(CC)c(=S)[nH]c1=O` was run?
Its Potency is inconclusive: 17.7 µM [activator, single point].

`Cc1ccc(/C=C/C(=O)Nc2nccs2)o1` was tested. Which Potency did it give?
The Potency was inconclusive: 15.8 µM [inhibitor, single point].

How did the “activity, negative = inhibition” value turn out when `O=C(CN1C(=O)NC2(CCCC2)C1=O)Nc1cc(S(=O)(=O)N2CCOCC2)ccc1OCC(F)(F)F` was run?
Its value is inactive: 14.5%.

Which “activity, negative = inhibition” value does the source give for `Cc1nc2ccc(-c3nc4ccc(N)cc4[nH]3)cc2[nH]1` here?
Its value is inactive: -7.13%.

For `COc1cc(N=Nc2cccc(S(N)(=O)=O)c2)c2ccccc2c1N`, which Potency is on record?
The Potency was inconclusive: 2.81 µM [inhibitor, full curve].

Which “activity, negative = inhibition” value does the source give for `COc1ccccc1C(=O)N=c1sc2c(C)ccc(OC)c2n1C` here?
The value was inactive: -24.5%.

For `Cc1ccc(C)c(S(=O)(=O)N2CCCOC2CNC(=O)C(=O)NCCCn2ccnc2)c1` (configuration not stated), which “activity, negative = inhibition” value is on record?
Its value is inactive: 3.84%.

For `Cc1onc(-c2ccccc2)c1C(=O)NNC(=S)NC(=O)c1ccc(Cl)cc1Cl`, which Potency is on record?
Its Potency is inconclusive: 11.2 µM [activator, partial curve].

With `CC(/C=N/NC(=O)c1ccc(CN2c3cccc4cccc(c34)S2(=O)=O)cc1)c1ccccc1` (configuration not stated) as the molecule, how does the “activity, negative = inhibition” value read?
The value was inactive: -1.28%.

Which Potency does the source give for `CCN(CC)c1ccc(/C=N/Nc2nc3ccccc3[nH]2)c(O)c1` here?
The Potency was inconclusive: 15.8 µM [inhibitor, partial curve].

With `Nc1ccc(-c2nc3cc(N)ccc3n2CCO)cc1` as the molecule, how does the Potency read?
The Potency was inconclusive: 19.9 µM [inhibitor, single point].

With `CCOC(=O)c1c2ccc(OCC(=O)NN)cc2n2ccccc12` as the molecule, how does the Potency read?
Its Potency is inconclusive: 7.06 µM [inhibitor, partial curve].

With `CC(=O)OCC1=C(C(=O)O)N2C(=O)C(NC(=O)CCn3nc(C(F)(F)F)c(Br)c3C3CC3)C2SC1` (configuration not stated) as the molecule, how does the “activity, negative = inhibition” value read?
Its value is inactive: 13.1%.

`CCOC(=O)C(C)On1c(-c2ccccc2)nc2ccc([N+](=O)[O-])cc21` (configuration not stated) was tested. Which Potency did it give?
The Potency was inconclusive: 17.7 µM [inhibitor, single point].

With `O=C1CC(C(=O)Nc2ccc(Br)cc2)C2(CCCC2)O1` (configuration not stated) as the molecule, how does the “activity, negative = inhibition” value read?
The value was inactive: 7.66%.

How did the “activity, negative = inhibition” value turn out when `O=C(CCCCCBr)N1CCC(CC2CC(c3ccc(Cl)cc3)=NO2)(C(=O)NCC2CCCCC2)CC1` (configuration not stated) was run?
The value was inactive: -6.21%.

With `CCN(Cc1ccccc1)S(=O)(=O)c1ccc(C(=O)Nc2nnc(C3CC3)o2)cc1` as the molecule, how does the Potency read?
The Potency was inconclusive: 17.7 µM [activator, partial curve].

`N#CC1(C#N)CC(C=O)=C(N)C1(C#N)CC(=O)c1ccc(F)cc1` (configuration not stated) was tested. Which Potency did it give?
The Potency was inconclusive: 5 µM [inhibitor, partial curve].

`CC(C)=CCN1CCN(Cc2cn(C(C)C)c3ccccc23)CC1CCO` (configuration not stated) was tested. Which “activity, negative = inhibition” value did it give?
Its value is inactive: -6.24%.

How did the Potency turn out when `O=c1oc2ccccc2c(Nc2cc3ccccc3cc2O)c1[N+](=O)[O-]` was run?
Its Potency is active: 6.29 µM.

How did the Potency turn out when `C=CCn1c(-c2ccco2)n[nH]c1=S` was run?
The Potency was inconclusive: 9.98 µM [inhibitor, partial curve].

`Cn1c(=O)[nH]c2nnc(-c3ccc(Cl)c(Cl)c3)nc2c1=O` was tested. Which Potency did it give?
Its Potency is inconclusive: 7.06 µM [inhibitor, partial curve].

With `CCc1ccc(S(=O)(=O)NC(CC(=O)O)c2ccccc2)cc1` (configuration not stated) as the molecule, how does the Potency read?
Its Potency is inconclusive: 17.7 µM [activator, single point].

For `COc1ccc(/C=N/n2c(SC)nnc2-c2ccccc2)cc1C`, which “activity, negative = inhibition” value is on record?
Its value is inactive: 16.4%.

Which Potency does the source give for `N#CC1=C(N)Oc2n[nH]c(-c3cccs3)c2C1c1ccsc1` (configuration not stated) here?
Its Potency is inconclusive: 15.8 µM [inhibitor, single point].

`CCOC(=O)CN1NC2(CCC(C)CC2)NC1=S` (configuration not stated) was tested. Which Potency did it give?
Its Potency is inconclusive: 15.8 µM [inhibitor, single point].

For `CCCCn1c(NS(=O)(=O)c2ccccc2)c(S(=O)(=O)c2ccc(C)cc2)c2nc3ccccc3nc21`, which Potency is on record?
Its Potency is inconclusive: 1.26 µM [inhibitor, full curve].

For `COc1ccc(N2CCN(C(c3cccc(OC)c3OC)c3nnnn3C3CCCC3)CC2)cc1` (configuration not stated), which Potency is on record?
The Potency was inconclusive: 31.6 µM [inhibitor, single point].

`CC(=O)Oc1ccc(C(=O)[C@H]2[C@H]3C(=O)N(c4cccc5ccccc45)C(=O)[C@H]3[C@@H]3C=CC=NN32)cc1` was tested. Which Potency did it give?
The Potency was inconclusive: 11.2 µM [inhibitor, partial curve].

How did the Potency turn out when `COc1ccc(C2CC(c3ccccc3)Oc3cc(OC)c(OC)c(OC)c32)cc1` (configuration not stated) was run?
Its Potency is “inactive”.

For `CCOC(=O)NC(=S)Nc1cccc(NC(=S)NC(=O)OCC)c1`, which Potency is on record?
Its Potency is inconclusive: 1.58 µM [inhibitor, full curve].

`CCCCc1c(O)nc(SCC(=O)Nc2cccc3ccccc23)n(-c2ccccc2OC)c1=O` was tested. Which Potency did it give?
Its Potency is inconclusive: 14.1 µM [activator, partial curve, poor fit].

For `C1=CC2CC1CC2CN1CCN(Cc2ccccc2)CC1` (configuration not stated), which Potency is on record?
The Potency was inconclusive: 22.3 µM [inhibitor, partial curve].

How did the “activity, negative = inhibition” value turn out when `CCN(CC)C(NC(=O)Cc1ccccc1)C(Cl)(Cl)Cl` (configuration not stated) was run?
Its value is inactive: -0.567%.

With `Cc1ccc(S(=O)(=O)O/N=C2\CCCc3ccccc32)cc1` as the molecule, how does the Potency read?
The Potency was inconclusive: 22.3 µM [inhibitor, partial curve].

With `CC1(C)CN(C(=S)Nc2ccc(F)cc2F)C1=O` as the molecule, how does the Potency read?
The Potency was inconclusive: 15.8 µM [inhibitor, partial curve].

With `O=C(N/N=C/c1cccc2nccnc12)c1ccccc1O` as the molecule, how does the Potency read?
Its Potency is inconclusive: 17.7 µM [inhibitor, single point].

Which Potency does the source give for `CCCn1c(O)c(CN2CCCC(C)C2)c(C)c(C#N)c1=O` (configuration not stated) here?
The Potency was inconclusive: 7.92 µM [inhibitor, partial curve].

`CCN(CC)S(=O)(=O)c1csc(C(=O)NC2CCCCC2)c1` was tested. Which “activity, negative = inhibition” value did it give?
Its value is inactive: -2.01%.

Which Potency does the source give for `c1ccc2oc(SCc3cn4ccsc4n3)nc2c1` here?
Its Potency is inconclusive: 17.7 µM [inhibitor, single point].

With `CC(/C=N/NC(=O)CSc1nc2ccccc2n1C)=C\c1ccco1` as the molecule, how does the “activity, negative = inhibition” value read?
The value was inactive: -25.2%.

`COc1ccc(-c2cc(=O)oc3c(O)c(O)ccc23)cc1` was tested. Which Potency did it give?
Its Potency is inconclusive: 7.94 µM [inhibitor, partial curve].

How did the Potency turn out when `COc1c(C(=O)NC(=S)Nc2nnn(C)n2)cc2ccccc2c1Br` was run?
The Potency was inconclusive: 28.2 µM [inhibitor, single point].

For `Cc1cc(-c2n[nH]c(=S)n2/N=C/c2cccc(O)c2)n[nH]1`, which Potency is on record?
The Potency was inconclusive: 19.9 µM [inhibitor, partial curve].

Which “activity, negative = inhibition” value does the source give for `COc1ccc(-c2ccc(N(C)C)cc2)cc1C1C2C=CCCC2(C)C(=O)N1Cc1ccccc1` (configuration not stated) here?
The value was inactive: -0.377%.

`CCSc1nc2sccc2c(=O)n1-c1ccccc1` was tested. Which “activity, negative = inhibition” value did it give?
The value was inactive: 1.53%.

How did the Potency turn out when `O=C(Sc1nnc(-c2ccccc2)o1)N1c2ccccc2Sc2ccccc21` was run?
Its Potency is inconclusive: 22.3 µM [inhibitor, single point].

`O=[N+]([O-])c1ccc(N/N=C/c2cccc(O)c2O)c(S(=O)(=O)N2CCOCC2)c1` was tested. Which Potency did it give?
The Potency was inconclusive: 19.9 µM [inhibitor, partial curve].

Which Potency does the source give for `COc1ccc(NC(=O)CN2CCOCC2)cc1` here?
The Potency was inconclusive: 44.6 µM [inhibitor, single point].

`COc1c(C)cc(Br)cc1C(=O)NC(=S)Nc1ccc(Cl)c(C(=O)O)c1` was tested. Which Potency did it give?
Its Potency is inconclusive: 17.7 µM [activator, single point].

Which “activity, negative = inhibition” value does the source give for `COc1ccc2oc(=Nc3cccc(F)c3)c(C(N)=O)cc2c1` here?
The value was inactive: 0.535%.

How did the Potency turn out when `O=c1ccc2cc(O)c(O)cc2o1` was run?
Its Potency is inconclusive: 17.7 µM [inhibitor, partial curve] and inconclusive: 15.8 µM [inhibitor, single point] and inconclusive: 7.06 µM [inhibitor, partial curve].
